# This is one part of the list.
# B1: PA-IL (Pseudomonas aeruginosa), Q05097 (protein)
# chain: MAWKGEVLANNEAGQVTSIIYNPGDVITIVAAGWASYGPTQKWGPQGDREHPDQGLICHDAFCGALVMKIGNSGTIPVNTGLFRWVAPNNVQGAITLIYNDVPGTYGNNSGSFSVNIGKDQS
# Tests used:
# Assay in all cases: glycan array binding signal (z-score within array); higher = stronger binding
# Details in all cases: glycan notation: IUPAC condensed, linker removed
# [1] = molecular target: Gal(b1-4)GlcNAc(b1-3)GalNAc
# Method in brief: (§1)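 Glycan array binding is given as a within-array Z-score, which can be read as non-binding when negative. The arrays, 3228 of them, came from the Consortium for Functional Glycomics database and were retained only where the protein sequence was available. Z-scores were averaged across arrays of the same protein sequence at different concentrations or buffers and across linkers.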
# [2] = molecular target: Gal(b1-4)GlcNAc(b1-3)[Fuc(a1-3)GlcNAc(b1-6)]Gal(b1-4)Glc
# Method in brief: as §1
# [3] = molecular target: Gal(b1-4)GlcNAc(b1-3)[Gal(b1-4)GlcNAc(b1-6)]Gal(b1-4)GlcNAc
# Method in brief: as §1
# [4] = molecular target: Gal(b1-4)GlcNAc(b1-3)[Gal(b1-4)GlcNAc(b1-6)]GalNAc
# Method in brief: as §1
# [5] = molecular target: Gal(b1-4)GlcNAc(b1-3)[GlcNAc(b1-6)]Gal(b1-4)GlcNAc
# Method in brief: as §1
# [6] = molecular target: Gal(b1-4)GlcNAc(b1-6)Gal(b1-4)GlcNAc
# Method in brief: as §1
# [7] = molecular target: Gal(b1-4)GlcNAc(b1-6)GalNAc
# Method in brief: as §1
# [8] = molecular target: Gal(b1-4)GlcNAc(b1-6)[Gal(b1-3)]GalNAc
# Method in brief: as §1
# [9] = molecular target: Gal(b1-4)GlcNAc(b1-6)[Gal(b1-4)GlcNAc(b1-3)]GalNAc
# Method in brief: as §1
# Gal(b1-4)GlcNAc6P = molecular target: Gal(b1-4)GlcNAc6P
# Method in brief: as §1
# Gal(b1-6)Gal = molecular target: Gal(b1-6)Gal
# Method in brief: as §1
# Gal3S(b1-3)GalNAc = molecular target: Gal3S(b1-3)GalNAc
# Method in brief: as §1
# Gal3S(b1-3)GlcNAc = molecular target: Gal3S(b1-3)GlcNAc
# Method in brief: as §1
# [10] = molecular target: Gal3S(b1-3)[Fuc(a1-4)]GlcNAc
# Method in brief: as §1
# Gal3S(b1-4)Glc = molecular target: Gal3S(b1-4)Glc
# Method in brief: as §1
# Gal3S(b1-4)Glc6S = molecular target: Gal3S(b1-4)Glc6S
# Method in brief: as §1
# Gal3S(b1-4)GlcNAc = molecular target: Gal3S(b1-4)GlcNAc
# Method in brief: as §1
# Gal3S(b1-4)GlcNAc6S = molecular target: Gal3S(b1-4)GlcNAc6S
# Method in brief: as §1
# [11] = molecular target: Gal3S(b1-4)[Fuc(a1-3)]Glc
# Method in brief: as §1
# [12] = molecular target: Gal3S(b1-4)[Fuc(a1-3)]Glc6S
# Method in brief: as §1
# [13] = molecular target: Gal3S(b1-4)[Fuc(a1-3)]GlcNAc
# Method in brief: as §1
# [14] = molecular target: Gal3S(b1-4)[Fuc(a1-3)]GlcNAc6S
# Method in brief: as §1
# Gal3S4S(b1-4)GlcNAc = molecular target: Gal3S4S(b1-4)GlcNAc
# Method in brief: as §1
# Gal3S6S(b1-4)GlcNAc = molecular target: Gal3S6S(b1-4)GlcNAc
# Method in brief: as §1
# Gal3S6S(b1-4)GlcNAc6S = molecular target: Gal3S6S(b1-4)GlcNAc6S
# Method in brief: as §1
# Gal4S(b1-4)GlcNAc = molecular target: Gal4S(b1-4)GlcNAc
# Method in brief: as §1
# Gal4S6S(b1-4)GlcNAc = molecular target: Gal4S6S(b1-4)GlcNAc
# Method in brief: as §1
# Gal6P(b1-4)GlcNAc = molecular target: Gal6P(b1-4)GlcNAc
# Method in brief: as §1
# Gal6S(b1-3)GlcNAc = molecular target: Gal6S(b1-3)GlcNAc
# Method in brief: as §1
# Gal6S(b1-3)GlcNAc6S = molecular target: Gal6S(b1-3)GlcNAc6S
# Method in brief: as §1
# Gal6S(b1-4)Glc = molecular target: Gal6S(b1-4)Glc
# Method in brief: as §1
# Gal6S(b1-4)Glc6S = molecular target: Gal6S(b1-4)Glc6S
# Method in brief: as §1
# Gal6S(b1-4)GlcNAc = molecular target: Gal6S(b1-4)GlcNAc
# Method in brief: as §1
# Gal6S(b1-4)GlcNAc6S = molecular target: Gal6S(b1-4)GlcNAc6S
# Method in brief: as §1
# GalNAc(a1-3)Gal = molecular target: GalNAc(a1-3)Gal
# Method in brief: as §1
# GalNAc(a1-3)GalNAc = molecular target: GalNAc(a1-3)GalNAc
# Method in brief: as §1
# [15] = molecular target: GalNAc(a1-3)GalNAc(a1-3)Gal(a1-4)Gal(b1-4)GlcNAc
# Method in brief: as §1
# [16] = molecular target: GalNAc(a1-3)GalNAc(b1-3)Gal(a1-4)Gal(b1-4)Glc
# Method in brief: as §1
# [17] = molecular target: GalNAc(a1-3)GalNAc(b1-3)Gal(a1-4)Gal(b1-4)GlcNAc
# Method in brief: as §1
# GalNAc(b1-3)Gal = molecular target: GalNAc(b1-3)Gal
# Method in brief: as §1
# [18] = molecular target: GalNAc(b1-3)Gal(a1-4)Gal(b1-4)GlcNAc
# Method in brief: as §1
# [19] = molecular target: GalNAc(b1-3)Gal(a1-4)Gal(b1-4)GlcNAc(b1-3)Gal(b1-4)Glc
# Method in brief: as §1
# [20] = molecular target: GalNAc(b1-3)Gal(a1-6)Gal(b1-4)Glc
# Method in brief: as §1
# GalNAc(b1-3)GalNAc = molecular target: GalNAc(b1-3)GalNAc
# Method in brief: as §1
# GalNAc(b1-3)GlcNAc = molecular target: GalNAc(b1-3)GlcNAc
# Method in brief: as §1
binder,measurement,setting,value
B1,glycan array binding signal (z-score),[1],-0.223
same,glycan array binding signal (z-score),[2],-0.157
same,glycan array binding signal (z-score),[3],-0.028
same,glycan array binding signal (z-score),[4],-0.216
same,glycan array binding signal (z-score),[5],-0.179
same,glycan array binding signal (z-score),[6],-0.235
same,glycan array binding signal (z-score),[7],-0.213
same,glycan array binding signal (z-score),[8],-0.219
same,glycan array binding signal (z-score),[9],-0.19
same,glycan array binding signal (z-score),Gal(b1-4)GlcNAc6P,-0.226
same,glycan array binding signal (z-score),Gal(b1-6)Gal,0.287
same,glycan array binding signal (z-score),Gal3S(b1-3)GalNAc,-0.215
same,glycan array binding signal (z-score),Gal3S(b1-3)GlcNAc,-0.229
same,glycan array binding signal (z-score),[10],-0.225
same,glycan array binding signal (z-score),Gal3S(b1-4)Glc,-0.23
same,glycan array binding signal (z-score),Gal3S(b1-4)Glc6S,-0.228
same,glycan array binding signal (z-score),Gal3S(b1-4)GlcNAc,-0.219
same,glycan array binding signal (z-score),Gal3S(b1-4)GlcNAc6S,-0.223
same,glycan array binding signal (z-score),[11],-0.23
same,glycan array binding signal (z-score),[12],-0.083
same,glycan array binding signal (z-score),[13],-0.236
same,glycan array binding signal (z-score),[14],-0.233
same,glycan array binding signal (z-score),Gal3S4S(b1-4)GlcNAc,-0.222
same,glycan array binding signal (z-score),Gal3S6S(b1-4)GlcNAc,-0.233
same,glycan array binding signal (z-score),Gal3S6S(b1-4)GlcNAc6S,-0.22
same,glycan array binding signal (z-score),Gal4S(b1-4)GlcNAc,-0.227
same,glycan array binding signal (z-score),Gal4S6S(b1-4)GlcNAc,-0.225
same,glycan array binding signal (z-score),Gal6P(b1-4)GlcNAc,-0.274
same,glycan array binding signal (z-score),Gal6S(b1-3)GlcNAc,-0.224
same,glycan array binding signal (z-score),Gal6S(b1-3)GlcNAc6S,-0.223
same,glycan array binding signal (z-score),Gal6S(b1-4)Glc,-0.225
same,glycan array binding signal (z-score),Gal6S(b1-4)Glc6S,-0.234
same,glycan array binding signal (z-score),Gal6S(b1-4)GlcNAc,-0.232
same,glycan array binding signal (z-score),Gal6S(b1-4)GlcNAc6S,-0.225
same,glycan array binding signal (z-score),GalNAc(a1-3)Gal,0.41
same,glycan array binding signal (z-score),GalNAc(a1-3)GalNAc,0.409
same,glycan array binding signal (z-score),[15],0.29
same,glycan array binding signal (z-score),[16],0.067
same,glycan array binding signal (z-score),[17],0.119
same,glycan array binding signal (z-score),GalNAc(b1-3)Gal,-0.229
same,glycan array binding signal (z-score),[18],-0.23
same,glycan array binding signal (z-score),[19],-0.228
same,glycan array binding signal (z-score),[20],-0.225
same,glycan array binding signal (z-score),GalNAc(b1-3)GalNAc,-0.219
same,glycan array binding signal (z-score),GalNAc(b1-3)GlcNAc,-0.221
